Structures can show the parent of a compound that is named as a salt. The full ranking holds about 2,000 compounds; the median of “fractional viability relative to vehicle” is about 0.91, and the lowest 2% start at about 0.045. Some of the results follow.
Test system: TYKNU
Assay: fractional viability relative to vehicle; TYKNU is a high-grade serous ovarian cancer line; higher = less growth inhibition
Conditions: 72 h
Summary of the method: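 TYKNU control cells or lentiCRISPRv2 knockout derivatives were seeded at 500 cells per well into drug-stamped 384-well plates holding a ~2100-compound library at 2 or 10 μM, in duplicate. Cells were grown at 37 °C in 5% CO2 in RPMI 1640 with 10% FBS, and drug treatment lasted 72 h. Viability was read by Cell Titer Glo luminescence. Duplicate treatment wells were averaged and normalised to duplicate control wells from the same plate position.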

[1] = 2uM, genotype: DNM1L knockout (sgDNM1L #1)
[2] = 2uM, genotype: sgCTRLA1 (non-targeting control)
[3] = 10uM, genotype: DNM1L knockout (sgDNM1L #1)
[4] = 10uM, genotype: sgCTRLA1 (non-targeting control)

CCCNCC(O)COc1ccccc1C(=O)CCc1ccccc1 (configuration not stated) [Propafenone HCl]
fractional viability [1]: 1.03 | fractional viability [2]: 1.02 | fractional viability [3]: 0.762 | fractional viability [4]: 0.617

COc1cc([C@@H]2c3cc4c(cc3[C@@H](O[C@@H]3O[C@@H]5CO[C@@H](C)O[C@H]5[C@H](O)[C@H]3O)[C@H]3COC(=O)[C@H]23)OCO4)cc(OC)c1O [Etoposide]
fractional viability [1]: 0.524 | fractional viability [2]: 0.543 | fractional viability [3]: 0.23 | fractional viability [4]: 0.263

CN(C)C(=S)NN=C(c1ccccn1)c1ccccn1
fractional viability [1]: 0.177 | fractional viability [2]: 0.132 | fractional viability [3]: 0.255 | fractional viability [4]: 0.107

COc1ccccc1OCC(O)CN1CCN(CC(=O)Nc2c(C)cccc2C)CC1 (configuration not stated) [Ranolazine 2HCl]
fractional viability [1]: 0.984 | fractional viability [2]: 1.14 | fractional viability [3]: 0.894 | fractional viability [4]: 1.16

COc1ccccc1OCC(O)CN1CCN(CC(=O)Nc2c(C)cccc2C)CC1 (configuration not stated) [Ranolazine]
fractional viability [1]: 0.992 | fractional viability [2]: 1.1 | fractional viability [3]: 0.859 | fractional viability [4]: 0.975

Nc1nc2n[nH]nc2c(=O)[nH]1 [Azaguanine-8]
fractional viability [1]: 1.01 | fractional viability [2]: 1.31 | fractional viability [3]: 0.697 | fractional viability [4]: 0.754

CN(C)c1nc(N(C)C)nc(N(C)C)n1 [Altretamine]
fractional viability [1]: 1.05 | fractional viability [2]: 1.07 | fractional viability [3]: 0.977 | fractional viability [4]: 1.03

COc1cc2c(Oc3ccc4[nH]c(C)cc4c3F)ncnc2cc1OCCCN1CCCC1 [Cediranib (AZD2171)]
fractional viability [1]: 0.99 | fractional viability [2]: 0.847 | fractional viability [3]: 0.0461 | fractional viability [4]: 0.0421

O=C(O)c1cc(-c2ccccc2)nc2ccccc12 [Cinchophen]
fractional viability [1]: 0.777 | fractional viability [2]: 1.12 | fractional viability [3]: 0.728 | fractional viability [4]: 0.907

CC(=O)O[C@]1(C(C)=O)CC[C@H]2[C@@H]3C[C@H](C)C4=CC(=O)CC[C@]4(C)[C@H]3CC[C@@]21C [Medroxyprogesterone acetate]
fractional viability [1]: 1.14 | fractional viability [2]: 1.13 | fractional viability [3]: 0.772 | fractional viability [4]: 1.02

O=S(=O)(O)c1cc(O)ccc1O [Ethamsylate]
fractional viability [1]: 0.83 | fractional viability [2]: 1.2 | fractional viability [3]: 0.799 | fractional viability [4]: 1.02

O=C1C[C@@H](c2ccc(O)cc2)Oc2cc(O)cc(O)c21 [Naringenin]
fractional viability [1]: 0.825 | fractional viability [2]: 1.14 | fractional viability [3]: 0.837 | fractional viability [4]: 1.07

CCC(=O)O[C@]1(C(=O)CCl)[C@@H](C)C[C@H]2[C@@H]3CCC4=CC(=O)C=C[C@]4(C)[C@@]3(F)[C@@H](O)C[C@@]21C [Clobetasol propionate]
fractional viability [1]: 1.17 | fractional viability [2]: 0.996 | fractional viability [3]: 0.689 | fractional viability [4]: 0.883

CCOC(=O)[C@H](CCc1ccccc1)N[C@H]1CS[C@H](c2cccs2)CN(CC(=O)O)C1=O [Temocapril HCl]
fractional viability [1]: 0.889 | fractional viability [2]: 1.23 | fractional viability [3]: 0.83 | fractional viability [4]: 1.04

COc1ccc(F)c(F)c1C(=O)c1cnc(NC2CCN(S(C)(=O)=O)CC2)nc1N
fractional viability [1]: 0.195 | fractional viability [2]: 0.242 | fractional viability [3]: 0.39 | fractional viability [4]: 0.328

CCCCC(F)(F)[C@@]1(O)CC[C@H]2[C@@H](CC(=O)[C@@H]2CCCCCCC(=O)O)O1 [Lubiprostone]
fractional viability [1]: 0.983 | fractional viability [2]: 1.07 | fractional viability [3]: 0.958 | fractional viability [4]: 0.968

COc1ccc(C2CNC(=O)C2)cc1OC1CCCC1 (configuration not stated) [Rolipram]
fractional viability [1]: 0.989 | fractional viability [2]: 1.21 | fractional viability [3]: 0.861 | fractional viability [4]: 1.08

O=c1c(O)c(-c2ccc(O)cc2O)oc2cc(O)cc(O)c12 [Morin Hydrate]
fractional viability [1]: 1.02 | fractional viability [2]: 1.01 | fractional viability [3]: 1.01 | fractional viability [4]: 1.13

OC[C@H]1O[C@@H](Oc2cc(O)cc(/C=C/c3ccc(O)cc3)c2)[C@H](O)[C@@H](O)[C@@H]1O [Polydatin]
fractional viability [1]: 1.07 | fractional viability [2]: 1.04 | fractional viability [3]: 0.862 | fractional viability [4]: 1.08

CC(=O)Nc1nc(C)c(-c2ccc(Cl)c(S(=O)(=O)NCCO)c2)s1
fractional viability [1]: 0.912 | fractional viability [2]: 0.811 | fractional viability [3]: 0.532 | fractional viability [4]: 0.494

Cc1nc(=O)c2cc(CN(C)c3ccc(C(=O)N[C@@H](CCC(=O)O)C(=O)O)s3)ccc2[nH]1 [Raltitrexed]
fractional viability [1]: 0.346 | fractional viability [2]: 0.362 | fractional viability [3]: 0.297 | fractional viability [4]: 0.391

CCCOc1ccn2c(C(C)=O)cc(-c3ccccc3S(C)(=O)=O)c2c1
fractional viability [1]: 0.858 | fractional viability [2]: 1.12 | fractional viability [3]: 0.736 | fractional viability [4]: 1.1

CC(/C=C1\SC(=S)N(CC(=O)O)C1=O)=C\c1ccccc1 [Epalrestat]
fractional viability [1]: 0.92 | fractional viability [2]: 1.11 | fractional viability [3]: 0.89 | fractional viability [4]: 1.03

O=C1c2ccccc2C(=O)c2c1ccc(O)c2O [Alizarin]
fractional viability [1]: 0.834 | fractional viability [2]: 1.1 | fractional viability [3]: 0.8 | fractional viability [4]: 1.06

O=c1oc2ccccc2c(O)c1Cc1c(O)c2ccccc2oc1=O [Dicoumarol]
fractional viability [1]: 0.874 | fractional viability [2]: 1.12 | fractional viability [3]: 0.829 | fractional viability [4]: 1.13

CS(=O)(=O)N1CCc2c(-c3cnc(N)nc3)nc(N3CCOCC3)nc21
fractional viability [1]: 0.46 | fractional viability [2]: 0.559 | fractional viability [3]: 0.184 | fractional viability [4]: 0.198

CC(=O)[C@]1(O)Cc2c(O)c3c(c(O)c2[C@@H](O[C@H]2C[C@H](N)[C@H](O)[C@H](C)O2)C1)C(=O)c1ccccc1C3=O [Idarubicin HCl]
fractional viability [1]: 0.362 | fractional viability [2]: 0.165 | fractional viability [3]: 0.042 | fractional viability [4]: 0.021

CC[C@H](C)C(=O)O[C@H]1CCC=C2C=C[C@H](C)[C@H](CC[C@@H]3C[C@@H](O)CC(=O)O3)[C@H]21 [Mevastatin]
fractional viability [1]: 0.448 | fractional viability [2]: 0.673 | fractional viability [3]: 0.258 | fractional viability [4]: 0.286

— the supplement of paper PMC5919970
